Source: patent publication US8716302B2, “Compounds for inducing cellular apoptosis” (Queen Mary & Westfield College, priority 2009, dated 2014)
Where “and” joins values, the source holds several entries; their conditions need not be identical. Equal values may be shown once. For some assays here: At least one read-out could not be matched to a standard name with certainty. For some assays here: At least one compound was matched to its structure with a doubt left. Some of these results come from one statement about several compounds together.

Tests used:
[1] = system: HL60 leukaemia cell line; test: DiOC6 flow evaluation of cell viability and apoptosis, HL60 leukaemia cell line; format: cell-based; conditions: HL60, 50 μM, versus PK11195 at 50 μM
[2] = system: DoHH2 cells; test: Superoxide purging with MnTBAP, apoptosis in DoHH2 cells; format: cell-based, human; conditions: with and without ROS scavenger MnTBAP
Experimental: For each entry in FIG. 2, DAPI viable is on the left and DAPI non viable is on the right.
O^2-• was detected by incubating cells for 15 minutes in 5 μM dihydroethidium, which is oxidized to ethidium. To test the effect of O^2-• […] on O^2-• generation, cells were treated with 100 μM MnTBAP for 45 minutes. Hydrogen peroxide was detected by loading cells for 30 minutes with 5 μM CM-H2DCFDA, and its formation inhibited by preincubation with 500 U/ml catalase for 30 minutes. Dose-response curves for CM-H2DCFDA used the calculated proportion of CM-H2DCFDAhigh cells as the dependent variable.
DoHH2 cells were exposed to AAW-001, AAW-0014 and PK11195 in the presence and absence of the mitochondrial reactive oxygen species (ROS) scavenger MnTBAP.

[3] = system: DoHH2 (lymphoma) cell line; test: DiOC6(3) flow evaluation of cell viability and apoptosis, DoHH2 (lymphoma) cell line; format: cell-based, human; conditions: for superiority to PK11195 in inducing apoptosis (factor): DoHH2, 50 μM, versus PK11195; for Percentage Cell Apoptosis: DoHH2 cells, 50 μM, individual repeats
Experimental: DiOC6(3) flow evaluation of cell viability and levels of apoptosis was carried out at 10 and 50 μm concentrations. For each entry in FIG. 1, % apoptosis is on the left and % viable is on the right.
Measurement of Mitochondrial Membrane Potential depolarisation and mitochondrial permeability transition (MPT). Cells were incubated for 20 minutes at 37° C. in the dark with the cationic lipophillic (amphipathic) probe 3,3′-dihexyloxacarbocyanine iodide, DiOC6(3) (80 nM), then counter stained for 10 minutes with propidium iodide (20 μg/ml). DiOC6(3) is sequestered within the mitochondrial matrix due to the inner membrane potential (Δψm), according to the Nernst equation, dissipation leading to a reduction in mitochondrial retention and decreased cellular DiOC6(3) fluorescence. Collapse of Δψm was prevented by incubating cells for 30 minutes with 50 μM bongkrekic acid. Events with increased propidium iodide fluorescence were subtracted, by gating, from the DiOC6(3) histograms to eliminate dead cells, with loss of plasma membrane integrity. Dose-response curves used the calculated proportion of DiOC6(3)low, cells as the dependent variable on the ordinate. To measure MPT directly, cells were incubated with 1 μM calcein AM for 30 minutes, followed by 1 mM […] cobalt. Cobalt quenches calcein fluorescence, but cannot traverse an intact inner mitochondrial membrane to enter the mitochondrial matrix, to which calcein equilibrates. Opening of the PTPC allows cobalt to enter, reducing calcein fluorescence.
The Lymphoma cell line (DoHH2) was treated with PK11195 and various compounds of the invention at doses of 10 and 50 μmol concentrations. Levels of cell viability and apoptosis were measured by DiOC6 flow evaluation. DiOC6 is a fluorescent dye which acts as a surrogate marker of mitochondrial depolarisation. Uptake of DiOC6 and consequent fluorescence is a measure of opening of the permeability transition pore complex (PTPC).
The following tables set out % viability and % apoptosis results seen for treatment of DoHH2 cells with certain compounds of the invention at a dosage of 50 μM, in comparison with untreated cells. The assay procedure used was as described above in respect of “Treatment of DoHH 2 (Lymphoma) Cell Line”.

CC(C)C(=O)Nc1cc2c(c(-c3ccccc3Cl)c1)CCN(C(=O)C(F)(F)F)C2 [CO-AAW0001, N-[5-(2-chloro-phenyl)-2-(2,2,2-trifluoro-acetyl)-1,2,3,4-tetrahydro-isoquinolin-7-yl]-isobutyramide]
superiority to PK11195 in inducing apoptosis (factor) [1]: at least 3 fold
ability to induce apoptosis in the presence of MnTBAP [2]: inhibited by MnTBAP
superiority to PK11195 in inducing apoptosis (factor) [3]: at least 4 fold
Percentage Cell Apoptosis ([3]; listed as 1): 39.1% and 49.2% and 80.0% and 50.9% and 64.9% and 58.0% and 62.1% and 60.7% and 56.8% and 25.1% and 34.2%

CCCC(=O)N1CCc2c(cc([N+](=O)[O-])cc2-c2ccccc2Cl)C1 [CO-AAW00017, 1-[5-(2-chlorophenyl)-7-nitro-1,2,3,4-tetrahydroisoquinolin-2-yl]butan-1-one]
superiority to PK11195 in inducing apoptosis (factor) [1]: at least 3 fold
superiority to PK11195 in inducing apoptosis (factor) [3]: at least 4 fold
Percentage Cell Apoptosis ([3]; listed as 17): 55.3%

CC(C)C(=O)Nc1cc2c(c(-c3ccccc3Cl)c1)CCN(C(=O)c1ccccc1)C2 [CO-AAW00025, N-[2-Benzoyl-5-(2-chloro-phenyl)-1,2,3,4-tetrahydroisoquinolin-7-yl]2-methylpropanamide]
Percentage Cell Apoptosis ([3]; listed as 25): 11.1%

CCC(C)C(=O)Nc1cc2ccccc2c(-c2ccccc2Cl)n1 (centres unmarked) [CO-AAW0008]
Percentage Cell Apoptosis ([3]; listed as 8): 29.5%

CCCCC(=O)Nc1nc2c(c(-c3ccccc3Cl)n1)CN(Cc1ccccc1)CC2 [CO-AAW00014, pentanoic acid [6-benzyl-4-(2-chloro-phenyl)-5,6,7,8-[4,3-d]pyrimidin-2-yl]-amide]
superiority to PK11195 in inducing apoptosis (factor) [1]: at least 3 fold
superiority to PK11195 in inducing apoptosis (factor) [3]: at least 4 fold
Percentage Cell Apoptosis ([3]; listed as 14): 50.0% and 74.1% and 81.9% and 56.7% and 69.2% and 58.9% and 67.4%

CC(C)NC(=O)c1cc2ccccc2c(-c2ccccc2Cl)n1 [CO-AAW0009]
Percentage Cell Apoptosis ([3]; listed as 9): 52.5% and 12.3%

O=C(Nc1nc2c(c(-c3ccccc3Cl)n1)CN(Cc1ccccc1)CC2)c1cccc(Cl)c1Cl [CO-AAW00016, N-[6-benzyl-4-(2-chlorophenyl)-5H,6H,7H,8H-pyrido[4,3-d]pyrimidin-2-yl]-2,3-dichlorobenzamide]
Percentage Cell Apoptosis ([3]; listed as 16): 33.6%

CCCCNC(=O)c1cc2ccccc2c(-c2ccccc2Cl)n1 [CO-AAW00022]
superiority to PK11195 in inducing apoptosis (factor) [1]: at least 3 fold
superiority to PK11195 in inducing apoptosis (factor) [3]: at least 4 fold
Percentage Cell Apoptosis ([3]; listed as 22): 67.8%

CC(C)C(=O)Nc1cc2ccccc2c(-c2ccccc2Cl)n1 [CO-AAW0007]
Percentage Cell Apoptosis ([3]; listed as 7): 35.1% and 17.0%

CC(C)NC(=O)c1cc2ccccc2c(-c2c(Cl)cccc2Cl)n1 [CO-AAW00018]
Percentage Cell Apoptosis ([3]; listed as 18): 22.5%

CNC(=O)c1cc2ccccc2c(-c2ccccc2Cl)n1 [CO-AAW00020]
Percentage Cell Apoptosis ([3]; listed as 20): 17.4%
